# Results taken from the supplement of paper PMC8728848.
# This is one part of the list.
# Tests used:
# Test in all cases: glycan array binding signal (z-score within array); higher = stronger binding
# Details in all cases: glycan notation: IUPAC condensed, linker removed
# Fuc(a1-2)Gal = target: Fuc(a1-2)Gal
# Procedure, shortened: (§1)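 Glycan array data were curated from 3228 arrays in the Consortium for Functional Glycomics database and kept only where the protein sequence was available. Glycan names were converted to IUPAC-condensed notation, and columns mapping to the same glycan were averaged. The binding signal is a within-array Z-score, averaged across arrays of the same protein sequence at different concentrations or buffers and across linkers. Negative Z-scores can be read as non-binding.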
# Fuc(a1-2)Gal(b1-3)GalNAc = target: Fuc(a1-2)Gal(b1-3)GalNAc
# Procedure, shortened: as §1
# [1] = target: Fuc(a1-2)Gal(b1-3)GalNAc(a1-3)[Fuc(a1-2)]Gal(b1-4)Glc
# Procedure, shortened: as §1
# [2] = target: Fuc(a1-2)Gal(b1-3)GalNAc(a1-3)[Fuc(a1-2)]Gal(b1-4)GlcNAc
# Procedure, shortened: as §1
# [3] = target: Fuc(a1-2)Gal(b1-3)GalNAc(b1-3)Gal
# Procedure, shortened: as §1
# [4] = target: Fuc(a1-2)Gal(b1-3)GalNAc(b1-3)Gal(a1-4)Gal(b1-4)Glc
# Procedure, shortened: as §1
# [5] = target: Fuc(a1-2)Gal(b1-3)GalNAc(b1-4)[Neu5Ac(a2-3)]Gal(b1-4)Glc
# Procedure, shortened: as §1
# Fuc(a1-2)Gal(b1-3)GlcNAc = target: Fuc(a1-2)Gal(b1-3)GlcNAc
# Procedure, shortened: as §1
# [6] = target: Fuc(a1-2)Gal(b1-3)GlcNAc(b1-2)Man(a1-3)[Fuc(a1-2)Gal(b1-3)GlcNAc(b1-2)Man(a1-6)]Man(b1-4)GlcNAc(b1-4)GlcNAc
# Procedure, shortened: as §1
# [7] = target: Fuc(a1-2)Gal(b1-3)GlcNAc(b1-2)Man(a1-3)[Fuc(a1-2)Gal(b1-3)GlcNAc(b1-2)Man(a1-6)]Man(b1-4)GlcNAc(b1-4)[Fuc(a1-6)]GlcNAc
# Procedure, shortened: as §1
# [8] = target: Fuc(a1-2)Gal(b1-3)GlcNAc(b1-3)Gal(b1-4)Glc
# Procedure, shortened: as §1
# [9] = target: Fuc(a1-2)Gal(b1-3)GlcNAc(b1-3)GalNAc
# Procedure, shortened: as §1
# [10] = target: Fuc(a1-2)Gal(b1-3)GlcNAc(b1-3)[Fuc(a1-2)Gal(b1-3)GlcNAc(b1-6)]GalNAc
# Procedure, shortened: as §1
# [11] = target: Fuc(a1-2)Gal(b1-3)GlcNAc(b1-3)[Gal(b1-4)GlcNAc(b1-6)]Gal(b1-4)Glc
# Procedure, shortened: as §1
# [12] = target: Fuc(a1-2)Gal(b1-3)GlcNAc(b1-3)[Neu5Ac(a2-6)Gal(b1-4)GlcNAc(b1-6)]Gal(b1-4)Glc
# Procedure, shortened: as §1
# [13] = target: Fuc(a1-2)Gal(b1-3)GlcNAc6S
# Procedure, shortened: as §1
# [14] = target: Fuc(a1-2)Gal(b1-3)[Fuc(a1-4)]GlcNAc
# Procedure, shortened: as §1
# [15] = target: Fuc(a1-2)Gal(b1-3)[Fuc(a1-4)]GlcNAc(b1-2)Man(a1-3)[Fuc(a1-2)Gal(b1-3)[Fuc(a1-4)]GlcNAc(b1-2)Man(a1-3)]Man(b1-4)GlcNAc(b1-4)GlcNAc
# Procedure, shortened: as §1
# [16] = target: Fuc(a1-2)Gal(b1-3)[Fuc(a1-4)]GlcNAc(b1-2)Man(a1-3)[Fuc(a1-2)Gal(b1-3)[Fuc(a1-4)]GlcNAc(b1-2)Man(a1-6)]Man(b1-4)GlcNAc(b1-4)[Fuc(a1-6)]GlcNAc(b1-4)[Fuc(a1-6)]GlcNAc
# Procedure, shortened: as §1
# [17] = target: Fuc(a1-2)Gal(b1-3)[Fuc(a1-4)]GlcNAc(b1-3)[Fuc(a1-3)[Gal(b1-4)]GlcNAc(b1-6)]Gal(b1-4)Glc
# Procedure, shortened: as §1
# [18] = target: Fuc(a1-2)Gal(b1-3)[Fuc(a1-4)]GlcNAc(b1-3)[Gal(b1-4)GlcNAc(b1-6)]Gal(b1-4)Glc
# Procedure, shortened: as §1
# Fuc(a1-2)Gal(b1-4)Glc = target: Fuc(a1-2)Gal(b1-4)Glc
# Procedure, shortened: as §1
# Fuc(a1-2)Gal(b1-4)Glc6S = target: Fuc(a1-2)Gal(b1-4)Glc6S
# Procedure, shortened: as §1
# Fuc(a1-2)Gal(b1-4)GlcNAc = target: Fuc(a1-2)Gal(b1-4)GlcNAc
# Procedure, shortened: as §1
# [19] = target: Fuc(a1-2)Gal(b1-4)GlcNAc(b1-2)Man
# Procedure, shortened: as §1
# [20] = target: Fuc(a1-2)Gal(b1-4)GlcNAc(b1-2)Man(a1-3)[Fuc(a1-2)Gal(b1-4)GlcNAc(b1-2)Man(a1-6)]Man(b1-4)GlcNAc(b1-4)GlcNAc
# Procedure, shortened: as §1
# [21] = target: Fuc(a1-2)Gal(b1-4)GlcNAc(b1-2)Man(a1-3)[Fuc(a1-2)Gal(b1-4)GlcNAc(b1-2)Man(a1-6)]Man(b1-4)GlcNAc(b1-4)[Fuc(a1-6)]GlcNAc
# Procedure, shortened: as §1
# [22] = target: Fuc(a1-2)Gal(b1-4)GlcNAc(b1-2)[Fuc(a1-2)Gal(b1-4)GlcNAc(b1-4)]Man(a1-3)[Fuc(a1-2)Gal(b1-4)GlcNAc(b1-2)Man(a1-6)]Man(b1-4)GlcNAc(b1-4)GlcNAc
# Procedure, shortened: as §1
# [23] = target: Fuc(a1-2)Gal(b1-4)GlcNAc(b1-3)Gal(b1-4)GlcNAc
# Procedure, shortened: as §1
# [24] = target: Fuc(a1-2)Gal(b1-4)GlcNAc(b1-3)Gal(b1-4)GlcNAc(b1-2)Man(a1-3)[Fuc(a1-2)Gal(b1-4)GlcNAc(b1-3)Gal(b1-4)GlcNAc(b1-2)Man(a1-6)]Man(b1-4)GlcNAc(b1-4)GlcNAc
# Procedure, shortened: as §1
binder,measurement,setting,value
PX9937B-bvu-524-33-524 (Bacteroides vulgatus) (protein) GTAYWKNPDQFTAFNTGLHALLREKSYNFFLLGEPRADIYGDNPIGGEASQGMERLPFNTINKENVGISNYGDMYKIINQINQMIAKTTETTILTEATQNYYLGEAYGMRAYLYFHLLRSWGDVVLYLDYTEGQNLDLSNITKGVSPATEVMEQIKKDIQASENAFGSDYSFKLGRHFWSAAATQMLKGEAYLWSGRQMNGGNSDYTIAKNAFENVKKADVGLVTSSFKDIFSFENKKNKEMIFTIHNGKDEYEMWGGYYRMRLIPAQDKMVKIYCDENGNSFVGTPDAQLNGLTQLQVRREFYFKGFRNNDTRWTTSLKAVYKKDAQGVVSYFGPITYKFQGTMLEGGSTRSFLDDFPIYRYADCLLQLAMAKVLLGEDPTEEINAVRERAYGSKYFNEHKAEIAYPNDNDPEFYTDNKWMKPDNAGALEAILKERLREFMFEGKRWYDIRLLGWDYVHQYSSAEQSRLLWPIDAGTLTNNSALKQTPGYE,glycan array binding signal (z-score),Fuc(a1-2)Gal,-0.384
same,glycan array binding signal (z-score),Fuc(a1-2)Gal(b1-3)GalNAc,-0.293
same,glycan array binding signal (z-score),[1],-0.317
same,glycan array binding signal (z-score),[2],-0.51
same,glycan array binding signal (z-score),[3],-0.112
same,glycan array binding signal (z-score),[4],-0.213
same,glycan array binding signal (z-score),[5],-0.433
same,glycan array binding signal (z-score),Fuc(a1-2)Gal(b1-3)GlcNAc,-0.131
same,glycan array binding signal (z-score),[6],0.758
same,glycan array binding signal (z-score),[7],-0.232
same,glycan array binding signal (z-score),[8],-0.346
same,glycan array binding signal (z-score),[9],-0.512
same,glycan array binding signal (z-score),[10],-0.016
same,glycan array binding signal (z-score),[11],-0.284
same,glycan array binding signal (z-score),[12],-0.297
same,glycan array binding signal (z-score),[13],-0.073
same,glycan array binding signal (z-score),[14],-0.457
same,glycan array binding signal (z-score),[15],-0.154
same,glycan array binding signal (z-score),[16],0.745
same,glycan array binding signal (z-score),[17],-0.297
same,glycan array binding signal (z-score),[18],-0.48
same,glycan array binding signal (z-score),Fuc(a1-2)Gal(b1-4)Glc,-0.383
same,glycan array binding signal (z-score),Fuc(a1-2)Gal(b1-4)Glc6S,-0.234
same,glycan array binding signal (z-score),Fuc(a1-2)Gal(b1-4)GlcNAc,-0.337
same,glycan array binding signal (z-score),[19],0.117
same,glycan array binding signal (z-score),[20],-0.104
same,glycan array binding signal (z-score),[21],0.844
same,glycan array binding signal (z-score),[22],-0.07
same,glycan array binding signal (z-score),[23],-0.571
same,glycan array binding signal (z-score),[24],0.041
